# Out of some 370,000 compounds screened, about 150 (0.041%) were called active. Inconclusive means that the source gave no clear call. Such entries were picked first, then a sample of the others. Calls follow the shape of the dose curve; as a rule, active = well fitted inhibition curve with a large enough effect; inconclusive = small, poorly fitted or top-dose-only effect; inactive = flat fitted curve, though single readings scatter. Potencies of inconclusive entries are left out as doubtful fits.
# Molecular target: Beta-lactamase (Escherichia coli (strain K12)) (UniProt P00811)
# UniProt P00811, sequence (P00811 whole entry, looked up): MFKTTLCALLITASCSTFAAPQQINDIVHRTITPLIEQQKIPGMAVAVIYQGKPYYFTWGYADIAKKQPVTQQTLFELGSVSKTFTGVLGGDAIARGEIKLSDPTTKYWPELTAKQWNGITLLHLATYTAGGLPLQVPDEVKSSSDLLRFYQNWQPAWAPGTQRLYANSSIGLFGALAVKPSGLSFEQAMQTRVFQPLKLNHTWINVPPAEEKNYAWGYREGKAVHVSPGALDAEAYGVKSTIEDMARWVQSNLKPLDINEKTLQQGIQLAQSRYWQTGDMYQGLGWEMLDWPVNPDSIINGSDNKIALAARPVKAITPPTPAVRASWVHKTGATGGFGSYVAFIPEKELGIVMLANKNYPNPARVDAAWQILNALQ
# Assay: qHTS Inhibitors of AmpC Beta-Lactamase (assay with detergent); also: nearly all actives have a fitted effect of over 25% in size
# Conditions: AmpC hydrolysis of nitrocefin, absorbance 480 nm, 0.01% Triton; series mostly up to 114 µM
# Procedure, shortened: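 AmpC (5.3 nM in the dispensed reagent) in 20 mM phosphate pH 7.0 with 0.01% (detergent screen) or 0.0001% Triton X-100 was preincubated with compounds for 15 min at room temperature. Nitrocefin was then added from an 800 uM solution, and hydrolysis was followed at 480 nm.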
# Potency is read from the fitted curve at half-maximal effect; tags tell the direction and shape of the fitted curve.
row,Structure (SMILES),Potency
1,CCN(CC)CCN(Cc1cc2cc3c(cc2[nH]c1=O)OCO3)C(=S)NC,"inconclusive [inhibitor, full curve, poor fit]"
2,O=C(Nc1ccc(-c2nc3ncccc3o2)cc1)c1ccc(Br)o1,inactive
3,CC(C)(C)NC(=O)c1cccc(NC(=O)c2cccc(O)c2)c1,"inconclusive [inhibitor, full curve, poor fit]"
4,CCOc1c(Cl)cc(/C=C/C(=O)N(CC)CC(=O)Nc2ccc(NC(C)=O)cc2)cc1OC,"inconclusive [inhibitor, full curve, poor fit]"
5,COc1ccc(-c2nnn(CC(=O)N3CCOCC3)n2)cc1,"inconclusive [inhibitor, full curve, poor fit]"
6,COc1cccc(C(=O)CSc2nnc(-c3cc(OC)c(OC)c(OC)c3)o2)c1,"inconclusive [inhibitor, partial curve, poor fit]"
7,COC(=O)c1ccc(CN2CCCC(C(=O)c3cc(F)ccc3OC)C2)cc1 (stereo unspecified),"inconclusive [inhibitor, full curve]"
8,CC(C)C1Nc2ccc(C(=O)O)cc2C2C=CCC21 (stereo unspecified),inactive
9,Cc1ccc(-c2nn(-c3ccccc3)cc2C(=O)N2CCN(c3ccccn3)CC2)cc1,inactive
10,COc1ccc2cc3cc(C(=O)NCCN4CCN(c5ccccc5F)CC4)oc3nc2c1,inactive
11,CCC(C)Sc1ccc([C@@H]2[C@H]3C(=O)N(CC)C(=O)[C@H]3[C@]3(C(=O)OC)CCCCN23)cc1 (stereo partly specified),"inconclusive [inhibitor, partial curve, poor fit]"
12,CCOC(=O)C1CCCN(C(=O)c2ccc([N+](=O)[O-])c(C)c2)C1 (stereo unspecified),"inconclusive [inhibitor, full curve]"
13,O=C(c1cccs1)N1CCC(c2nc(-c3ccc(S(=O)(=O)N4CCOCC4)cc3)no2)CC1,"inconclusive [inhibitor, full curve, poor fit]"
14,COc1ccc(C(=O)Nc2ccccc2C(=O)Nc2ccc(C(=O)O)cc2)cc1,inactive
15,O=C(NCc1cccnc1)C1CC2c3ccccc3C1c1ccccc12 (stereo unspecified),"inconclusive [inhibitor, full curve, poor fit]"
16,CC(C)Sc1nc2ccccc2c(=O)[nH]1,"inconclusive [inhibitor, single point]"
17,CCOC(=O)N1CCN(CC(O)COCC2=CCC3CC2C3(C)C)CC1 (stereo unspecified),"inconclusive [inhibitor, full curve]"
18,O=C(Nc1ccc(Oc2ccccc2)cc1)c1ccc(F)c(S(=O)(=O)N2CCN(c3ccccc3F)CC2)c1,inactive
19,O=C(NCc1cccnc1)c1cn(CCc2ccccc2)nn1,"inconclusive [inhibitor, full curve]"
20,CCOc1ccc(C(=O)NC2C(=O)N3C(C(=O)O)=C(COC(C)=O)CSC23)cc1OCC (stereo unspecified),"inconclusive [inhibitor, single point]"
21,CN(c1ccccc1)S(=O)(=O)c1cccc(NC(=O)Nc2ccc(Cl)cc2C#N)c1,"inconclusive [inhibitor, partial curve]"
22,Cc1cc(C)nc(-n2nc(C)c3c2N(Cc2ccccc2C)C(=O)CC3c2ccc(Cl)cc2)n1 (stereo unspecified),inactive
23,CCOc1cc(-c2ccc3c(c2)OCO3)cc(=O)c2c(C)oc(C)c12,"inconclusive [inhibitor, full curve, poor fit]"
24,Cc1ccc(-c2nc(CSCC(=O)N3CCOCC3)c(C)o2)cc1,inactive

row,Structure (SMILES),Potency
1,O=[N+]([O-])c1cccc(S(=O)(=O)N/N=C/c2ccc(O)cc2)c1,inactive
2,O=C(NCc1cccnc1)C1CC(c2cccc(Br)c2)=NO1 (stereo unspecified),"inconclusive [inhibitor, full curve, poor fit]"
3,Cc1cccc(N2CCN(C(=O)C(NS(=O)(=O)c3cccs3)c3ccccc3)CC2)c1C (stereo unspecified),"inconclusive [inhibitor, full curve]"
4,CN(C(=O)Nc1ccccc1)C1CCCCC1,inactive
5,COc1ccc(-c2nc(CS(=O)CC(=O)NCc3ccc4c(c3)OCO4)c(C)o2)cc1 (stereo unspecified),"inconclusive [inhibitor, full curve, poor fit]"
6,Cc1ccc(NC(=O)NC(=O)CSc2nnnn2C)c(C)c1,"inconclusive [inhibitor, partial curve, poor fit]"
7,Cc1ccc(-n2nc(C)c(C(=O)NCCCN3CCN(c4cccc(Cl)c4)CC3)c2-n2cccc2)cc1,inactive
8,Cc1ccc(N2C(=O)N3[C@H](c4ccc(Cl)cc4)[C@@H]4C(=O)N(C5CCCCC5)C(=O)[C@@H]4[C@]3(Cc3ccccc3)C2=O)cc1,inactive
9,O=C(/C=C/c1ccco1)N1CCN(c2ncccn2)CC1,inactive
10,CC(C)(C)C1=CC(=Nc2ccccc2N)C=C(C(C)(C)C)C1=O,"inconclusive [inhibitor, full curve, poor fit]"
11,COc1cccc(CNC(=O)CCc2c(C)nc3c4c(C)cc(C)nc4nn3c2C)c1,inactive
12,Cc1ccc(O)c(NC(=O)CSc2ccc(Cl)cc2)c1,inactive
13,Cc1ccc(C)c2c1[nH]c1ccccc12,inactive
14,O=C(CSc1nc(-c2ccccc2)c(-c2ccccc2)o1)NC1CCS(=O)(=O)C1 (stereo unspecified),"inconclusive [inhibitor, full curve]"
15,C/C(=N\NC(=O)c1n[nH]c2c1CCC2)c1cccs1,inactive
16,c1csc(-c2noc(CN3CCN4CCCC4C3)n2)c1 (stereo unspecified),inactive
17,N#CCCN(C(=O)COC(=O)c1cc(=O)c2ccccc2o1)c1ccccc1,inactive
18,O=C(CCC(=O)N1CCN(Cc2ccc(F)cc2)CC1)Nc1nnc(C(F)(F)F)s1,"inconclusive [inhibitor, partial curve]"
19,C=CCOC(=O)C1=C(C)NC(SCC(=O)Nc2ccc(C)c(Cl)c2)=C(C#N)C1c1ccco1 (stereo unspecified),"inconclusive [inhibitor, partial curve, poor fit]"
20,CCOc1ccc(OCc2ccc(C(=O)NN)o2)cc1,inactive
21,Cc1ccc(C)c(N2CCN(C(=O)c3cn(C)c4ccc(S(=O)(=O)N(C)C)cc4c3=O)CC2)c1,"inconclusive [inhibitor, full curve, poor fit]"
22,O=C(N/N=C/c1ccc([N+](=O)[O-])o1)c1cc2ccccc2o1,inactive
23,Cc1nc2ccc(NS(=O)(=O)c3ccc(F)cc3F)cc2s1,"inconclusive [inhibitor, full curve, poor fit]"
24,CCOC(=O)C1(CCOc2ccccc2)CCN(Cc2cccc(F)c2)CC1,inactive

row,Structure (SMILES),Potency
1,O=C(Cn1cc(C(F)(F)F)ccc1=O)N/N=C/c1ccc(Cl)cc1Cl,"inconclusive [inhibitor, full curve, poor fit]"
2,CCC1(CC)NC(=O)N(CC(=O)OC(C)C(=O)Nc2cc([N+](=O)[O-])ccc2OC)C1=O (stereo unspecified),"inconclusive [inhibitor, full curve, poor fit]"
3,Cc1ccccc1NC(=O)CSc1nc2ccc(NC(=O)CCc3ccccc3)cc2s1,inactive
4,CCOc1ccc(NC(=O)c2ccccc2CO)cc1,"inconclusive [inhibitor, full curve, poor fit]"
5,CC(=O)N1CCN(c2ccc(NC(=O)c3ccc(C(C)(C)C)cc3)cc2)CC1,inactive
6,COc1cc(/C=C(\C#N)c2nc3ccccc3s2)cc([N+](=O)[O-])c1O,inactive
7,CC(C)C(OC(=O)c1cccs1)C(=O)NCc1ccco1 (stereo unspecified),inactive
8,O=C(CCCOc1ccccc1)N1CCCCC1,inactive
9,CCOC(=O)c1ccc(-c2c(-c3ccc4c(c3)OCO4)noc2C)cc1F,"inconclusive [inhibitor, partial curve, poor fit]"
10,O=C(CSc1ccccc1C(=O)O)Nc1ccc2c(c1)OCO2,"inconclusive [inhibitor, full curve, poor fit]"
11,O=C(Cn1nnc(-c2ccccc2NC(=O)c2ccco2)n1)NC1CCCCC1,"inconclusive [inhibitor, full curve]"
12,CC(C)OC(=O)c1c(NC(=O)Cn2cnc([N+](=O)[O-])n2)sc2c1CCCC2,"inconclusive [inhibitor, full curve]"
13,CCOC(=O)c1cc(-c2ccc(N3CCOCC3)cc2)nn1-c1ccccc1,inactive
14,CC(C)CC(=O)Nc1nnc(CCc2ccccc2)s1,"inconclusive [inhibitor, full curve, poor fit]"
15,COc1ccccc1/C=C/c1onc(C)c1S(=O)(=O)N1CCC(C(=O)N2CCC(C)CC2)CC1,inactive
16,Cc1ccc(NC(=O)c2cc(N3C(=O)C=CC3=O)ccc2N2CCOCC2)cc1Cl,inactive
17,COc1ccc2c(c1)-c1c(sn(-c3ccc(OC)c(OC)c3)c1=S)C(C)(C)N2,"inconclusive [inhibitor, full curve, poor fit]"
18,O=C(Cn1cncn1)NCc1cc(F)ccc1F,inactive
19,COc1ccc(Cn2nnnc2C(c2cccs2)N2CCOCC2)cc1 (stereo unspecified),"inconclusive [inhibitor, full curve, poor fit]"
20,CCC(C(=O)Nc1ccc(S(=O)(=O)Nc2ncccn2)cc1)c1ccccc1 (stereo unspecified),"inconclusive [inhibitor, single point]"
21,CCN(CC)CCOC(=O)c1cc2cc(COC)ccc2o1,"inconclusive [inhibitor, full curve, poor fit]"
22,CCc1nnc(NC(=O)CSc2nc3c([nH]c4ccccc43)c(=O)n2-c2ccc(F)cc2)s1,inactive
23,CC(=O)OCCNC(=O)c1cccnc1,"inconclusive [inhibitor, partial curve, poor fit]"

# — PubChem BioAssay AID485294 (National Center for Advancing Translational Sciences (NCATS), 2010)
